# The list shows a part of the results. The list includes weakly bound sequences.
# Biological target: T1, MBP-FoxP3dN (UniProt Q99JB6)
# T1 sequence: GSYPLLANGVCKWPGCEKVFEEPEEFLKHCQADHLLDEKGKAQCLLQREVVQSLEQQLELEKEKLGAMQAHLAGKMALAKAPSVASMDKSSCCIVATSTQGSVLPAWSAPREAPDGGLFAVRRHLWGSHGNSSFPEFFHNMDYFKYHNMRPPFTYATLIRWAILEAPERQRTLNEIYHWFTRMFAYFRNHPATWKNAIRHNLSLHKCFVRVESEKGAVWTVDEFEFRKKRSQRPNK
# Test: PD-seq (MBP pull-down with sequencing)
# Conditions: 20 mM Tris-HCl pH 7.5, 100 mM NaCl, 1.5 mM MgCl2, 0.4 uM protein, 0.1 uM dsDNA library, 30 min, room temperature, amylose pull-down; high values mean tight binding; double strand, one strand shown
row,Sequence,binding signal (RPM ratio (pull-down/input))
1,GATGATTGTTCTCCCAGCTGATGAATTGTATGCATCGAGTAAACAAATTTTCCTAATCTTTCTGTTCAAGCGCCATCTAC,2.97
2,GATGATTGTTCTCCCAGCTGATGAATTCATAAAGTCGAGTAAACAAATTTTCCTAATCTTTCTGTTCAAGCGCCATCTAC,0.238
3,GATGATTGTTCTCCCAGCTGATGAATTCGGTAACTCGAGTAAACAAATTTTCCTAATCTTTCTGTTCAAGCGCCATCTAC,1.26
4,GATGATTGTTCTCCCAGCTGATGAATTCACAATTTCGAGTAAACAAATTTTCCTAATCTTTCTGTTCAAGCGCCATCTAC,0.405
5,GATGATTGTTCTCCCAGCTGATGAATTAAATTGCTCGAGTAAACAAATTTTCCTAATCTTTCTGTTCAAGCGCCATCTAC,0.966
6,GATGATTGTTCTCCCAGCTGATGAATTGGCCCGATCGAGTAAACAAATTTTCCTAATCTTTCTGTTCAAGCGCCATCTAC,0.218
7,GATGATTGTTCTCCCAGCTGATGAATTAGAGATCTCGAGTAAACAAATTTTCCTAATCTTTCTGTTCAAGCGCCATCTAC,0.32
8,GATGATTGTTCTCCCAGCTGATGAATTTGGGGATTCGAGTAAACAAATTTTCCTAATCTTTCTGTTCAAGCGCCATCTAC,0.573
9,GATGATTGTTCTCCCAGCTGATGAATTATGATGCTCGAGTAAACAAATTTTCCTAATCTTTCTGTTCAAGCGCCATCTAC,1.73
10,GATGATTGTTCTCCCAGCTGATGAATTAAACGAATCGAGTAAACAAATTTTCCTAATCTTTCTGTTCAAGCGCCATCTAC,0.265
11,GATGATTGTTCTCCCAGCTGATGAATTCCTCTATTCGAGTAAACAAATTTTCCTAATCTTTCTGTTCAAGCGCCATCTAC,0.318
12,GATGATTGTTCTCCCAGCTGATGAATTGTCTTTCTCGAGTAAACAAATTTTCCTAATCTTTCTGTTCAAGCGCCATCTAC,0.551
13,GATGATTGTTCTCCCAGCTGATGAATTAACCCCATCGAGTAAACAAATTTTCCTAATCTTTCTGTTCAAGCGCCATCTAC,0.292
14,GATGATTGTTCTCCCAGCTGATGAATTAAAGCGTTCGAGTAAACAAATTTTCCTAATCTTTCTGTTCAAGCGCCATCTAC,1.23
15,GATGATTGTTCTCCCAGCTGATGAATTTAGAACTTCGAGTAAACAAATTTTCCTAATCTTTCTGTTCAAGCGCCATCTAC,0.331
16,GATGATTGTTCTCCCAGCTGATGAATTGTAATACTCGAGTAAACAAATTTTCCTAATCTTTCTGTTCAAGCGCCATCTAC,0.756

row,Sequence,binding signal (RPM ratio (pull-down/input))
1,GATGATTGTTCTCCCAGCTGATGAATTTCGCCGATCGAGTAAACAAATTTTCCTAATCTTTCTGTTCAAGCGCCATCTAC,0.618
2,GATGATTGTTCTCCCAGCTGATGAATTCTTCTTATCGAGTAAACAAATTTTCCTAATCTTTCTGTTCAAGCGCCATCTAC,0.288
3,GATGATTGTTCTCCCAGCTGATGAATTAGCCTGCTCGAGTAAACAAATTTTCCTAATCTTTCTGTTCAAGCGCCATCTAC,0.578
4,GATGATTGTTCTCCCAGCTGATGAATTAACCCGCTCGAGTAAACAAATTTTCCTAATCTTTCTGTTCAAGCGCCATCTAC,0.208
5,GATGATTGTTCTCCCAGCTGATGAATTCGCCACGTCGAGTAAACAAATTTTCCTAATCTTTCTGTTCAAGCGCCATCTAC,0.944
6,GATGATTGTTCTCCCAGCTGATGAATTACCCAGGTCGAGTAAACAAATTTTCCTAATCTTTCTGTTCAAGCGCCATCTAC,0.153
7,GATGATTGTTCTCCCAGCTGATGAATTGGTGTAATCGAGTAAACAAATTTTCCTAATCTTTCTGTTCAAGCGCCATCTAC,1.35
8,GATGATTGTTCTCCCAGCTGATGAATTAGACCAGTCGAGTAAACAAATTTTCCTAATCTTTCTGTTCAAGCGCCATCTAC,0.233
9,GATGATTGTTCTCCCAGCTGATGAATTTCAGCCGTCGAGTAAACAAATTTTCCTAATCTTTCTGTTCAAGCGCCATCTAC,0.356
10,GATGATTGTTCTCCCAGCTGATGAATTCTTCACGTCGAGTAAACAAATTTTCCTAATCTTTCTGTTCAAGCGCCATCTAC,0.264
11,GATGATTGTTCTCCCAGCTGATGAATTGATCATATCGAGTAAACAAATTTTCCTAATCTTTCTGTTCAAGCGCCATCTAC,0.657
12,GATGATTGTTCTCCCAGCTGATGAATTGCGAAGGTCGAGTAAACAAATTTTCCTAATCTTTCTGTTCAAGCGCCATCTAC,0.469
13,GATGATTGTTCTCCCAGCTGATGAATTGTCCACATCGAGTAAACAAATTTTCCTAATCTTTCTGTTCAAGCGCCATCTAC,0.682
14,GATGATTGTTCTCCCAGCTGATGAATTATTGTCCTCGAGTAAACAAATTTTCCTAATCTTTCTGTTCAAGCGCCATCTAC,1.44
15,GATGATTGTTCTCCCAGCTGATGAATTTTCTCTTTCGAGTAAACAAATTTTCCTAATCTTTCTGTTCAAGCGCCATCTAC,0.236
16,GATGATTGTTCTCCCAGCTGATGAATTGATTAGCTCGAGTAAACAAATTTTCCTAATCTTTCTGTTCAAGCGCCATCTAC,0.866

# Reference: paper PMC12820563
